Laboratory results taken from PubChem BioAssay AID488969 (Vanderbilt High Throughput Screening Facility, 2010).
Over roughly 110,000 compounds, “z-score” has its median near -0.1; the highest 2% begin near 2. The list shows a part of the results. Activity calls are given as the source filed them.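 Rule for the calls: active = z-score in the third read window above 3 or below -3; inactive = the rest.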

Each compound was assayed against Metabotropic glutamate receptor 8 (Rattus norvegicus) (UniProt P70579) (assay: rat mGluR8 modulators via GIRK flux, primary screen, cell-based, thallium flux, HTS (AID 488969)). Settings: HEK293 rat mGluR8, GIRK (G protein-gated inwardly rectifying potassium channel) thallium flux, FluoZin2; at 10 µM; stronger effect = higher value; submaximal glutamate (EC20) added with thallium.
Sequence of UniProt P70579 (P70579 whole entry, looked up): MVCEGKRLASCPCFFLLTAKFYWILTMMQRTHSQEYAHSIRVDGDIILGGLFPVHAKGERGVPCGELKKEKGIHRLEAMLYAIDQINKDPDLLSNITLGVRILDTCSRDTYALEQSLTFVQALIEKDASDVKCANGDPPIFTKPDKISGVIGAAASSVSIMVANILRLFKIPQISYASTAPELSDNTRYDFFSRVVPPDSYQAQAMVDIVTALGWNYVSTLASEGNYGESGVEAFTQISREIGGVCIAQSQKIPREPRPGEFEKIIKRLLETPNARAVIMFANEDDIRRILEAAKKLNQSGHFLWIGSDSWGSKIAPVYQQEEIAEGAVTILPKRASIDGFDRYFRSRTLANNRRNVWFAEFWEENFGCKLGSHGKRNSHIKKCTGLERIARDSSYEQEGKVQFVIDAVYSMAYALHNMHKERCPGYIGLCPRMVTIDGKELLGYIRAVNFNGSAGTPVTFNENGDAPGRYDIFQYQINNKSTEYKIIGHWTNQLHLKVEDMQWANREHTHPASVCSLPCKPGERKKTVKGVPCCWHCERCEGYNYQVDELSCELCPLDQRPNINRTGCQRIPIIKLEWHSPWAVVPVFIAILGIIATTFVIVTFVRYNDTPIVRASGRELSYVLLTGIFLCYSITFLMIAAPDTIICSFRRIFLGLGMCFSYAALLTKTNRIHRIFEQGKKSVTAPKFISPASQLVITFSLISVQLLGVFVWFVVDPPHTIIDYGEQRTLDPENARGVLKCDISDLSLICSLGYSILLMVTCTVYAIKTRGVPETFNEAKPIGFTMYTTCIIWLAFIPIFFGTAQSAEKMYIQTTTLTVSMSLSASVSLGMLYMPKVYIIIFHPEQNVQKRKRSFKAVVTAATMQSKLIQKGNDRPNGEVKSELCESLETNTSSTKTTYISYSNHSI

| SMILES | z-score |
| --- | --- |
| Cn1c(=O)c2c(nc(CN3CCc4ccccc4C3)n2CCc2ccccc2)n(C)c1=O | -0.281 |
| Cc1cccc(Sc2ccc([N+](=O)[O-])cc2[N+](=O)[O-])n1 | -0.278 |
| COc1ccc(OCC(O)Cn2cnc(-c3ccc(Br)cc3)c2)cc1 (stereo unspecified) | 0.693 |
| O=C1CN(C(=O)CSc2nc3ccccc3n2CCc2ccccc2)c2ccccc2N1 | -0.346 |
| O=C(Nc1cccc2nsnc12)c1cccnc1 | 0.07 |
| COC(=O)c1ccc(-c2sc3nc(N4CCOCC4)c4c(c3c2N)CCCC4)o1 | 1.06 |
| O=C(COc1ccc2oc(-c3ccccc3)cc(=O)c2c1)NCc1ccco1 | -0.671 |
| Cc1cc(N2CCCCCC2)nc2ccccc12 | -0.134 |
| CC(C)CC(=O)Nc1cccc(C(=O)Nc2ccccc2C(=O)O)c1 | -0.773 |
| N#Cc1nc(-c2ccc(OCc3ccccc3)cc2)oc1N1CCOCC1 | 0.782 |
| CC(C)Oc1ccccc1C1CC(=O)Nc2cc3c(cc21)OCCO3 (stereo unspecified) | -1.04 |
| O=C(NC(=S)NC(=O)c1ccccc1F)c1ccccc1F | 0.339 |
| CCCOC(=O)CSC1=C(C#N)C(c2ccccc2OC)C(C#N)C(=O)N1 (stereo unspecified) | -0.687 |
| O=C(CSc1nnc(-c2ccc(O)cc2)n1-c1ccccc1)CC(=O)Nc1ccccc1 | -0.867 |
| COc1ccc(NC(C)C(=O)N/N=C/c2ccccc2OCc2ccc(Br)cc2)cc1 (stereo unspecified) | 0.175 |
| COc1ccc(OC)c(S(=O)(=O)N(C)CC(=O)Nc2ccccc2OC)c1 | 1.3 |
| COc1ccc(Oc2nnnn2-c2ccccc2)cc1 | -0.0585 |
| CCOC(=O)c1csc(NC(=O)c2ccc(S(=O)(=O)N(C)C)cc2)n1 | 0.173 |
| Cc1cc(=O)oc2cc(OCC(=O)NCCCN3CCOCC3)ccc12 | -0.181 |
| O=C(CN(Cc1ccco1)S(=O)(=O)c1cccs1)Nc1ccccc1C(F)(F)F | 0.0674 |
| Cc1ccc(-c2nnc(N(C)C(=O)c3ccncc3)s2)cn1 | 0.272 |
| O=C(CN1C(=O)C2CC=C(Cl)CC2C1=O)N1CCOCC1 (stereo unspecified) | -0.256 |
| O=C(NCC(=O)N(CCc1ccccc1)C(C(=O)NC1CCCCC1)c1ccncc1)c1ccco1 (stereo unspecified) | 0.798 |
| CCC1CCCCN1C(=O)CSc1nc2ccsc2c(=O)n1Cc1ccccc1 (stereo unspecified) | -0.217 |

| SMILES | z-score |
| --- | --- |
| CC(=O)c1ccc(NC(=O)CSc2nccn2CCc2ccccc2)cc1 | -0.108 |
| O=c1c2c3c(sc2ncn1-n1cccc1)CCCCC3 | -0.0877 |
| COc1ccc(C(=O)OC(COc2ccccc2)Cn2ccnc2)cc1 (stereo unspecified) | 0.964 |
| O=C(Cc1ccc(Cl)cc1)N/N=C1\CCCc2ccccc21 | 0.288 |
| COCCn1c(CN(C)Cc2ccccc2)nc2c1c(=O)n(C)c(=O)n2C | -0.377 |
| CC(Nc1cc(=O)n(C)c(=O)[nH]1)c1ccccc1 (stereo unspecified) | -0.0898 |
| CC/C(O)=N\S(=O)(=O)c1ccc(N=NN(C)C)cc1 | 0.383 |
| Cc1ccccc1N/C(SCc1ccc(Cl)cc1)=C(/C#N)C(N)=O | -0.0867 |
| CN(C)C(=O)c1ccc2c(c1)n(C)c(=O)n2C | 0.644 |
| Cc1nc(N2CCc3ccccc3C2)[nH]c(=O)c1CCC(C)C | 0.0795 |
| Cc1cccc(N(CC(=O)N2CCCC2)S(=O)(=O)c2ccccc2)c1C | -0.0906 |
| CCCOC(=O)c1sc2nc3c(cc2c1N)C(=O)CCC3 | -0.569 |
| COc1cc2c(C#N)c(N3CCN(C)CC3)nc(N)c2c(N)n1 | 0.307 |
| COc1ccc(CCNC(=O)CNS(=O)(=O)c2cccs2)cc1OC | -0.0149 |
| CCn1nnnc1SCC(=O)NNC(=O)C1CCCCC1 | -0.27 |
| O=C(CNC(=O)c1ccco1)Nc1ccc(S(=O)(=O)N2CCCC2)cc1 | -0.202 |
| COc1cc(CNC(C)c2ccccc2)c(Br)cc1OCC(N)=O (stereo unspecified) | -0.121 |
| CSc1nnc2n(Cc3ccccc3)c(=O)c3c4c(sc3n12)COC(C(C)C)C4 (stereo unspecified) | -0.311 |
| C=CCSC1=N/C(=C\C=C\c2ccco2)C(=O)S1 | -0.31 |
| Cc1ccc(Cl)c(OCC(=O)Nc2sc(C)c(C)c2C#N)c1 | 0.877 |
| O=C(Cc1ccc(-n2c(=S)[nH]c3ccccc3c2=O)cc1)N1CCC(N2CCCCC2)CC1 | 0.0829 |
| CCC(C)NC(=O)CSc1nnc(-c2ccoc2C)n1CC1CCCO1 (stereo unspecified) | -0.168 |
| NNc1nc2c(F)cccc2s1 | 0.0402 |
| Cc1ccc(OCC(=O)NCc2ccccn2)cc1 | 0.0307 |

| SMILES | z-score |
| --- | --- |
| COc1ccc(/C(C)=N\NS(=O)(=O)c2ccccc2)cc1OC | -1.56 |
| O=C(Nc1ccc(F)cc1)c1ccc(-n2ccnc2)nc1 | -0.238 |
| CCOc1ccc(/C=N/n2cnnc2)cc1 | 1.83 |
| O=C(Cn1c(COc2ccc(Cl)cc2)nc2ccccc21)NCC(F)(F)F | -0.0844 |
| CCCCNc1c2c3c(cccc3n(C)c1=O)C(=O)c1ccccc1-2 | active: 16.2 |
| NC(=O)N/N=C/c1ccc(N2CCOCC2)s1 | -0.0709 |
| CCOc1ccc(Nc2c3c(nc4ncnn24)CC(C)CC3)cc1 (stereo unspecified) | -1.23 |
| COc1ccc(N2CC(C)Cn3c2nc2c3c(=O)[nH]c(=O)n2C)cc1 (stereo unspecified) | -0.0601 |
| Cc1noc(C)c1C(=O)Nc1c(F)cc(F)cc1Br | 0.559 |
| CSc1ccccc1NC(=O)c1cc(C(C)C)on1 | 0.177 |
| COc1ccc(O)c(C2=Nc3ccccc3N=C(c3ccco3)C2)c1 | -0.0378 |
| CCOC(=O)C1CCN(C(=O)CN(c2cccc(C(F)(F)F)c2)S(C)(=O)=O)CC1 | -0.032 |
| O=C1c2ccccc2C(=O)N1CCc1nc2ccccc2c(=O)n1-c1ccccn1 | 0.0757 |
| CCN(CC)CCCN1C(=O)C(O)=C(C(=O)c2cc3cccc(OC)c3o2)C1c1ccncc1 (stereo unspecified) | 0.548 |
| CC[C@H](C)[C@H](NC(=O)c1ccc(Cl)cc1)C(=O)OCC(=O)c1ccc2c(c1)NC(=O)CO2 | 0.101 |
| CC(C)(C)c1cn(-c2ccc(Cl)cc2)c(=S)[nH]1 | -0.267 |
| Cc1ccc(NC(=O)/C(=C\c2ccc3c(c2)OCO3)NC(=O)c2ccco2)cc1 | -0.271 |
| CC1CCN(c2c(NCC3CCC(C(=O)N4CCCC(C)C4)CC3)c(=O)c2=O)CC1 (stereo unspecified) | -2.02 |
| Cc1cccc(C)c1OCc1nnc(SCC(=O)Nc2nccs2)n1-c1ccccc1 | -0.09 |
| Fc1ccc(-c2nnc(CSc3nnc(-c4cccs4)o3)o2)cc1 | -0.122 |
| CN(C)CCNS(=O)(=O)c1ccc(N2CCN(c3ccc(F)cc3)CC2)c([N+](=O)[O-])c1 | 0.621 |
| CN=C(Nc1cc(C)nn1-c1ccccc1)c1ccccc1 | 0.0933 |
| CCc1sc(NS(C)(=O)=O)nc1-c1ccccc1 | 0.162 |
